From the supplement of paper PMC9174493
Structures can show the parent of a compound that is named as a salt. The list shows a part of the results. Single values of this set are uncertain. Values with irradiation are relative to irradiated vehicle.

Test system: A549-Dual
Test: ISRE reporter (Lucia luciferase) activity, viability-corrected, relative to vehicle (fold change vs vehicle); higher = more activation of STING-IRF / NF-kB immune response reporter
Settings: 10 µM; irradiation: none

| SMILES | ISRE reporter |
| --- | --- |
| CCC(=O)OCC(=O)C1(OC(=O)CC)C(C)CC2C3CCC4=CC(=O)C=CC4(C)C3(Cl)C(O)CC21C (centres undefined) [Beclomethasone dipropionate] | 0.233 |
| CC(=O)Nc1ccc(OC(=O)c2ccccc2OC(C)=O)cc1 [Benorylate] | 0.773 |
| Nc1ccccc1NC(=O)c1ccc(CNC(=O)OCc2cccnc2)cc1 [Entinostat (MS-275)] | 1.27 |
| COc1cc(N2CCC(N3CCN(C)CC3)CC2)ccc1Nc1ncc(Cl)c(Nc2ccccc2P(C)(C)=O)n1 | 0.947 |
| Cc1c(-c2ccc(-c3ccccc3F)cc2)nc2ccc(F)cc2c1C(=O)O [Brequinar] | 1.78 |
| CCC1/C=C(\C)CC(C)CC(OC)C2OC(O)(C(=O)C(=O)N3CCCCC3C(=O)OC(/C(C)=C/C3CCC(Cl)C(OC)C3)C(C)C(O)CC1=O)C(C)CC2OC (centres undefined) [Pimecrolimus] | 2 |
| COC(=O)/C=C/C(=O)OC [Dimethyl Fumarate] | 0.635 |
| Cc1cc(Nc2ncc(Cl)c(Nc3ccccc3S(=O)(=O)C(C)C)n2)c(OC(C)C)cc1C1CCNCC1 [Ceritinib (LDK378)] | 1.19 |
| Nc1nc(Cl)nc2c1ncn2C1CC(O)C(CO)O1 (centres undefined) [Cladribine] | 2.66 |
| CC12CCC(=O)C=C1CCC1C2C(O)CC2(C)C1CCC2(O)C(=O)CO (centres undefined) [Hydrocortisone] | 0.309 |
| Cc1coc2c1C(=O)C(=O)c1c-2ccc2c(C)cccc12 [Tanshinone I] | 0.51 |
| Cn1cnc([N+](=O)[O-])c1Sc1ncnc2nc[nH]c12 [Azathioprine] | 0.659 |
| O=c1ccc2cc3ccoc3cc2o1 [Psoralen] | 0.803 |
| CCC(=O)NS(=O)(=O)c1ccc(-c2c(-c3ccccc3)noc2C)cc1 [Parecoxib] | 0.885 |
| COc1ccc(-c2ccc3cc(C(=O)O)ccc3c2)cc1C12CC3CC(CC(C3)C1)C2 [Adapalene] | 1.81 |
| CCC(C(=O)O)c1ccc(N2Cc3ccccc3C2=O)cc1 (centres undefined) [Indobufen] | 0.892 |
| COC1CC2CCC(C)C(O)(O2)C(=O)C(=O)N2CCCCC2C(=O)OC(C(C)CC2CCC(O)C(OC)C2)CC(=O)C(C)/C=C(\C)C(O)C(OC)C(=O)C(C)CC(C)/C=C/C=C/C=C/1C (centres undefined) [Rapamycin (Sirolimus)] | 4.66 |
| COc1ccc(C2CNC(=O)C2)cc1OC1CCCC1 (centres undefined) [Rolipram] | 0.747 |
| Nc1nc(N)c2nc(-c3ccccc3)c(N)nc2n1 [Triamterene] | 0.646 |
| CN(C)CCN1C(=O)c2cccc3cc(N)cc(c23)C1=O [Amonafide] | 1.71 |
| CN1CCCC1CCOC(C)(c1ccccc1)c1ccc(Cl)cc1.O=C(O)/C=C/C(=O)O (centres undefined) [Clemastine Fumarate] | 2.01 |
| CC12C=CC(=O)C=C1CCC1C3CC(O)C(O)(C(=O)CO)C3(C)CC(O)C12F (centres undefined) [Triamcinolone] | 0.252 |
| CC1CC2C3CCC4=CC(=O)C=CC4(C)C3C(=O)CC2(C)C1(O)C(=O)CO (centres undefined) [Meprednisone] | 0.581 |
| CCS(=O)(=O)O.COC(=O)c1ccc2c(c1)NC(=O)/C2=C(\Nc1ccc(N(C)C(=O)CN2CCN(C)CC2)cc1)c1ccccc1 [Nintedanib Ethanesulfonate Salt] | 2.14 |
| CCCCCCCCCCCCCCCCCCOP(=O)([O-])OC1CC[N+](C)(C)CC1 [Perifosine (KRX-0401)] | 0.706 |
| CCC1(O)CC2CN(CCc3c([nH]c4ccccc34)C(C(=O)OC)(c3cc4c(cc3OC)N(C=O)C3C(O)(C(=O)OC)C(OC(C)=O)C5(CC)C=CCN6CCC43C65)C2)C1 (centres undefined) [Vincristine] | 0.509 |
| Cl.Nc1ccn(C2OC(CO)C(O)C2O)c(=O)n1 (centres undefined) [Cytarabine hydrochloride] | 2.64 |
| CC(=O)OC(C)C(C)C(=O)OCC12C3CC4(C)C(=CCC5C6(C)CCC(OC7OC(C(=O)[O][Na])C(OC8OC(CO)C(O)C(O)C8O)C(O)C7OC7OCC(O)C(O)C7O)C(C)(CO)C6CCC54C)C1CC(C)(C)C(O3)C2O (centres undefined) [Sodium Aescinate] | 0.727 |
| CCC(=O)OC1(C(=O)SCF)C(C)CC2C3CC(F)C4=CC(=O)C=CC4(C)C3(F)C(O)CC21C (centres undefined) [Fluticasone propionate] | 0.236 |
